In the antibiotic and cytotoxicity screens of Wong et al. (2023):
The list shows a part of the results.

Assays:
[1] = test system: HSkMC (human skeletal muscle cells); assay: cytotoxicity call (relative viability < 0.9); conditions: 10 µM
[2] = test system: HepG2; assay: cytotoxicity call (relative viability < 0.9); conditions: 10 µM
[3] = test system: S. aureus RN4220; assay: growth inhibition call (relative growth <= 0.2); conditions: 50 µM

SMILES | cytotoxicity call [1] | cytotoxicity call [2] | growth inhibition call [3]
C[C@@H]1CCCCO[C@@H](CN(C)C(=O)Nc2ccc3c(c2)OCO3)[C@@H](C)CN([C@@H](C)CO)C(=O)c2cc(NC(=O)C3CCCCC3)ccc2O1 | inactive | inactive | inactive
C[C@H]1CN([C@@H](C)CO)C(=O)Cc2cc(NC(=O)Cc3ccccc3)ccc2O[C@H]1CN(C)S(=O)(=O)c1ccc(F)cc1 | inactive | inactive | inactive
Cc1noc(C)c1NC(=O)N(C)C[C@@H]1Oc2ccc(NS(=O)(=O)c3cn(C)cn3)cc2CC(=O)N([C@@H](C)CO)C[C@@H]1C | inactive | inactive | inactive
COc1ccc(COC[C@]23N=C4SCC(=O)N4[C@H](c4ccccc4O2)[C@H]3COC(=O)NCCCCCC(=O)NO)cc1 | inactive | inactive | inactive
CCS(=O)(=O)N1C[C@]2(CCN(CC2)Cc2cccc(c2)OC)c2c(n(c3cc(ccc23)OC)C)[C@H]1CO | inactive | inactive | inactive
C[C@H]1CN([C@@H](C)CO)S(=O)(=O)c2ccc(C#CC3(O)CCCC3)cc2O[C@H]1CN(C)C(=O)c1ccccc1 | inactive | inactive | inactive
O=C(NNC(=O)C1CCNCC1)c1cccnc1 | inactive | inactive | inactive
COc1ccc(S(=O)(=O)N(C)C[C@@H]2OCCCC[C@H](C)Oc3ccc(NC(=O)C4CCCCC4)cc3C(=O)N([C@@H](C)CO)C[C@H]2C)cc1 | inactive | inactive | inactive
CN(C)CC(=O)N[C@@H]1CC[C@H](CC(=O)O)O[C@@H]1CO | inactive | inactive | inactive
CO[C@@H](C(=O)N(C)C[C@@H]1OCc2ccccc2-c2c(n(C)c3ccccc23)C(=O)N([C@H](C)CO)C[C@@H]1C)c1ccccc1 | inactive | inactive | inactive
C[C@@H]1CN([C@@H](C)CO)C(=O)c2cccc(NC(=O)Nc3cccc4ccccc34)c2O[C@H]1CN(C)S(=O)(=O)c1ccccc1 | inactive | inactive | inactive
O=c1[nH]c2ccccc2c2ccccc12 | inactive | inactive | inactive
Cc1noc(C)c1NC(=O)Nc1ccc2c(c1)C(=O)N([C@@H](C)CO)C[C@H](C)[C@@H](CN(C)C(=O)Cc1ccccc1)OCCCC[C@H](C)O2 | inactive | inactive | inactive
C[C@@H]1CN([C@@H](C)CO)C(=O)Cc2cc(NC(=O)CCCN(C)C)ccc2O[C@@H]1CN(C)Cc1ccc(Oc2ccccc2)cc1 | inactive | active | inactive
CC(C)CC#Cc1ccc2c(c1)O[C@@H](CN(C)C(=O)c1ccncc1)[C@@H](C)CN([C@H](C)CO)S2(=O)=O | inactive | inactive | inactive
C=CCOC(=O)[C@@H]1[C@H]2C(=O)O[C@H](c3ccccc3)[C@H](c3ccccc3)N2[C@H](c2ccc(OCCOC(=O)[C@@H]3C[C@@H]4C(=O)N[C@@H](CCCCNC(C)=O)C(=O)N4[C@@H]3c3ccc(O)cc3)cc2)[C@@]12C(=O)Nc1ccccc12 | inactive | inactive | inactive
Cc1noc(C)c1S(=O)(=O)Nc1cccc2c1O[C@H](CN(C)C(=O)Nc1ccc3c(c1)OCO3)[C@H](C)CN([C@H](C)CO)C2=O | inactive | inactive | inactive
C[C@@H]1c2ncc(CN3CCN(C)CC3)n2CCN1S(C)(=O)=O | inactive | inactive | inactive
COc1ccc(NC(=O)Nc2ccc3c(c2)C(=O)N([C@@H](C)CO)C[C@@H](C)[C@H](CN(C)S(=O)(=O)c2cccs2)OCCCC[C@H](C)O3)cc1 | inactive | inactive | inactive
Clc1ccc(COC(Cn2ccnc2)c2ccc(Cl)cc2Cl)cc1.O=[N+]([O-])O (stereo not given) | inactive | active | inactive
C[C@H](CO)N1C[C@H](C)[C@H](CN(C)Cc2ccc(C(=O)Nc3ccccc3N)cc2)Oc2ccc(NC(=O)Nc3ccc(C(F)(F)F)cc3)cc2CC1=O | inactive | active | inactive
CC[C@@H](C)N[C@H]1CCS(=O)(=O)C1 | inactive | inactive | inactive
O=C(C[C@@H]1C[C@@H]2c3cc(NS(=O)(=O)c4ccc(F)cc4)ccc3O[C@@H]2[C@@H](CO)O1)NCc1ccccc1F | inactive | inactive | inactive
C[C@H](CO)N1C[C@H](C)[C@H](CN(C)Cc2ccc(Cl)c(Cl)c2)Oc2c(NC(=O)c3ccc(-c4nccs4)cc3)cccc2C1=O | inactive | inactive | inactive
O=C(C[C@H]1CC[C@@H]2[C@H](COC[C@H](O)CN2S(=O)(=O)c2ccc(Cl)cc2)O1)NCCN1CCCCC1 | inactive | inactive | inactive
